From the supplement of paper PMC11417369
± gives the standard deviation of the averaged measurements. The list shows a part of the results.

system: PfAP2-LT AP2 domain (GST-tagged); assay: gcPBM binding intensity (ln(normalized median fluorescence intensity)); higher = stronger DNA binding
How it was run: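 GST-tagged P. falciparum DNA-binding domains, expressed in E. coli (about 25 μg on average), were applied for 1 h to an Agilent 4 × 180k array of primer-extended double-stranded 36-bp intergenic genomic probes plus negative controls. The binding buffer was 1× PBS with 1% milk, 0.2 mg/ml BSA, 0.5% salmon testes DNA and 0.03% Triton X-100. Bound protein was detected with Alexa488 anti-GST antibody and scanned at 488 nm. Binding intensity is the highest Masliner-normalised natural-log median intensity across replicate spots of either probe orientation.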

| Sequence | gcPBM binding intensity (ln) |
| --- | --- |
| CATATACGCAAACACACACACATATATATATATATA [CACACA_site501] | 10.3 ± 0.27 |
| AGGTATATATATTTATGTACTTAAAATGAGAAAATA [XGTACX_site8337] | 8.55 ± 0.56 |
| TATAATAATATTTATTGTACAATTAGGTTAATTCAT [XGTACX_site1986] | 8.61 ± 0.46 |
| TTGAAATTAAATGACATACACACTATATTATATATT [CACACA_site3135] | 8.76 ± 0.38 |
| AAAAATAAAGTAAAAGCATGCTAGTATATGGAAAAT [TGCATGCA_site486] | 9.22 ± 0.4 |
| CCGTATATTTTATATAGTACTCATCATATATTTTTA [XGTACX_site5560] | 8.64 ± 0.54 |
| CAAATTGGGAAATTTTGTACATATAATAAGGATACC [XGTACX_site7728] | 8.71 ± 0.39 |
| GATAATGAATGATGCACACTAAAAATATTCTACAAC [CACACA_site3622] | 9.29 ± 0.41 |
| CCTTTATTAAATAAATGTACATATTTTTGTGTTCTT [XGTACX_site2052] | 8.79 ± 0.5 |
| AAAAACTTTTCAAGTAGTACCATATCTACAATAGTA [XGTACX_site8927] | 8.53 ± 0.47 |
| AAACAAAAGATATATACACACTAAACATAAAAAAAA [CACACA_site6161] | 9.1 ± 0.47 |
| GTTGGTAGGATGTATGGTACACGTAGTATTTTTCTT [XGTACX_site2] | 9.13 ± 0.35 |
| AATAAAAATAAAATTGTATATTTTAAATGAAAATAA [CACACA_negctrl_site898] | 8.4 ± 0.6 |
| AAACTCTCTTATATTAAACACACATATATATATGTA [CACACA_site8865] | 8.83 ± 0.37 |
| CATCAAAATGCTACATGTACATATATATAATATATT [XGTACX_site5207] | 8.9 ± 0.35 |
| AATATATATAAATAAACACACACAAATATAATAAAA [CACACA_site9176] | 9.51 ± 0.38 |
| GAAATGAACAAGTGGGTGCGTATTAATTACATATTA | 8.91 ± 0.49 |
| ATAGATAAATTTACGGGTACTAAAATGGAATATGAA [XGTACX_site8637] | 8.76 ± 0.46 |
| TGTGTTCAGTATTGCACACACACAACCAAATAAAAA [CACACA_site379] | 9.56 ± 0.38 |
| TATTTTACAATAACAATACACACTATAATATATATA [CACACA_site1391] | 8.68 ± 0.38 |
| ATTCACATATTATCTTTACACACTATATATAAGTTT [CACACA_site8901] | 9.14 ± 0.44 |
| TTTTTAATTTTTTTTAAACACACACCGTACATTCAA [CACACA_site7925] | 8.94 ± 0.65 |
| TATATACTTTATAAATGTACATATAATGTATTATTT [XGTACX_site7313] | 8.71 ± 0.36 |

| Sequence | gcPBM binding intensity (ln) |
| --- | --- |
| TCATTTTAAATATGTGTGCACGTTATAATTTACACA | 9.12 ± 0.4 |
| CATTTTCATTTTAAGGTGCATTAATATTTATTTTAA [GTGCAC_site9437] | 8.5 ± 0.48 |
| TATATATATACATATTGTACATATTACATGCTATTA [XGTACX_site1184] | 8.95 ± 0.36 |
| TTTTATAAACAGAGGGGTACGGGAAAAAAAAAAAAA [XGTACX_site1480] | 8.52 ± 0.46 |
| TGTTAAAGAGAAAGTACTACACATATTATGTGTTTT [XGTACX_site1435] | 8.85 ± 0.49 |
| AGAAAAAAAAAACACACACACACACCGTCAATATAA [CACACA_site7895] | 10.1 ± 0.2 |
| TTAAAAAAAATTATTTGTACTTAAAAATTTTATATT [XGTACX_site8751] | 8.07 ± 0.64 |
| TTTTTAAACCATGTTGTGCACATTTTTTTTGGATTT | 8.97 ± 0.53 |
| TACATGAATATATAAAGAAAAAAAAAAAAACACACA [XGTACX_negctrl_site350] | 8.74 ± 0.41 |
| TATAAATTATATATTTGTACGTATATCACATATATA [XGTACX_site7053] | 8.72 ± 0.38 |
| TTTATTGAATAAAATGCACACGCATGCGTTATTTAT [CACACA_site9154] | 9.18 ± 0.38 |
| TATATGTTATATTTAACACACATATAAGGTACATAT [CACACA_site612] | 8.99 ± 0.37 |
| TTCTCATAATTAAATAGTACATATTTTAATAATCAC [XGTACX_site6116] | 8.47 ± 0.35 |
| TTAGTTATTATAATTTGTACACAAATGGTAAAGTAT [XGTACX_site2343] | 8.76 ± 0.33 |
| TTTGTACCGGCATTTTTTTTTTCTTTTTTTTTCCAA [XGTACX_negctrl_site323] | 8.64 ± 0.56 |
| TATTAAAAATGTTAAGTGCAAAAATAAAAATTGTGG [GTGCAC_site9854] | 8.74 ± 0.44 |
| AAAATTATATATTATAGTACATAAAATTTTGATATA [XGTACX_site994] | 8.52 ± 0.45 |
| AATAAATAAAAATATATATATATAATATACATGTGT [TGCATGCA_negctrl_site369] | 8.85 ± 0.52 |
| GGATGTATTTATATGTGTATGTGTTTGGAAATATGT [XGTACX_negctrl_site99] | 9.08 ± 0.28 |
| ACATATGAAAAATATGCATGCAAATATTATTTAACA [TGCATGCA_site802] | 9.03 ± 0.37 |
| TTTTTAAAATTTTTAAAAATATTATGTTAAATATAT [CACACA_negctrl_site415] | 8.1 ± 0.36 |
| TATGTATGTTAGTGTGCACACATAAATATTATATAT [CACACA_site9121] | 9.4 ± 0.26 |
